The list shows a part of the results, in another mix than the full data. The list includes weakly bound sequences.

The target in the experiment is T1, GST-Co-NF-kB (UniProt F1ARL5).
T1 sequence: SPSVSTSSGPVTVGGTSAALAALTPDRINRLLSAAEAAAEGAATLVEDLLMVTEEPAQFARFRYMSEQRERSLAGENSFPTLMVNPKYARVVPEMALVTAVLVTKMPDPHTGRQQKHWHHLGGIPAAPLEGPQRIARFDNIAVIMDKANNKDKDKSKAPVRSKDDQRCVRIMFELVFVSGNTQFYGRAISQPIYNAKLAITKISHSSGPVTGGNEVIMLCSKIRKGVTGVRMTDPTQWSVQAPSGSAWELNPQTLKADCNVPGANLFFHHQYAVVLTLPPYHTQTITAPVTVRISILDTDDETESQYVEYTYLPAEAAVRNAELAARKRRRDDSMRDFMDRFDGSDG
The experiment can be described thus: protein-binding microarray (PBM). The following applies: PBM: ~300 nM protein, 6 mM HEPES pH 7.8, 80 mM KCl, 0.5 mM EDTA, 0.5 mM EGTA, 6% glycerol, 35 ng/ul poly-dIdC, 1% milk, 1 h, room temperature; Ap Aiptasia and Nv Nematostella (sea anemones) / Co Capsaspora / Aq Amphimedon (sponge) / Dm Drosophila / Hu human; RHD is the Rel homology domain; high values mean tight binding; most listed sequences are background and not binding sites; double strand, one strand shown.
“CCGATTAACATCAGAAATGCCCCTGATGTTAATCGGGTCTTGATTCGCTTGACGCTGCTG”: the binding signal turned out to be 1.98 z-score.

For “CCGATTAACATCACCGATTTCCCTGATGTTAATCGGGTCTTGATTCGCTTGACGCTGCTG”, the binding signal worked out at 3.27 z-score.

“CCGATTAACATCAGGGGATCTTATGATGTTAATCGGGTCTTGATTCGCTTGACGCTGCTG” came in with a binding signal of 3.1 z-score.

“CCGATTAACATCACGGGTTTTTCTGATGTTAATCGGGTCTTGATTCGCTTGACGCTGCTG”: the binding signal was 0.785 z-score.

In turn, “CCGATTAACATCAAGTAAATCCCTGATGTTAATCGGGTCTTGATTCGCTTGACGCTGCTG” came in with a binding signal of 1.22 z-score.

For “CCGATTAACATCACATTTCCCCATGATGTTAATCGGGTCTTGATTCGCTTGACGCTGCTG”, the binding signal came to 7.21 z-score.

In turn, “CCGATTAACATCAGGGGGTTATATGATGTTAATCGGGTCTTGATTCGCTTGACGCTGCTG” showed a binding signal of 3.18 z-score.

Consider “CCGATTAACATCAAATAAACCCCTGATGTTAATCGGGTCTTGATTCGCTTGACGCTGCTG”, for which the binding signal was 2.32 z-score.

In turn, “CCGATTAACATCAGGAATACCCCTGATGTTAATCGGGTCTTGATTCGCTTGACGCTGCTG” showed a binding signal of 4.14 z-score.

In turn, “CCGATTAACATCAAGGGGGGAGATGATGTTAATCGGGTCTTGATTCGCTTGACGCTGCTG” had a binding signal of 6.56 z-score.

Sequence “CCGATTAACATCAGGGATTTACCTGATGTTAATCGGGTCTTGATTCGCTTGACGCTGCTG” showed a binding signal of 0.792 z-score.

Sequence “CCGATTAACATCAGGCATTCCCCTGATGTTAATCGGGTCTTGATTCGCTTGACGCTGCTG” displayed a binding signal of 3.19 z-score.

Regarding “CCGATTAACATCAAAAAAACACCTGATGTTAATCGGGTCTTGATTCGCTTGACGCTGCTG”, the binding signal is 0.723 z-score.

Regarding “CCGATTAACATCACTGTTTTCCCTGATGTTAATCGGGTCTTGATTCGCTTGACGCTGCTG”, the binding signal amounted to 4.9 z-score.

In turn, “CCGATTAACATCAGGTAATTCCATGATGTTAATCGGGTCTTGATTCGCTTGACGCTGCTG” registered a binding signal of 0.673 z-score.

Take “CCGATTAACATCAAAAAAACCCATGATGTTAATCGGGTCTTGATTCGCTTGACGCTGCTG”: the binding signal stood at 1.87 z-score.

In the case of “CCGATTAACATCATGCGGGAAAATGATGTTAATCGGGTCTTGATTCGCTTGACGCTGCTG”, the binding signal came out at 4.47 z-score.

Take “CCGATTAACATCAGGAAATTACCTGATGTTAATCGGGTCTTGATTCGCTTGACGCTGCTG”: the binding signal turned out to be 0.0522 z-score.

Take “CCGATTAACATCAATTTTTCCCCTGATGTTAATCGGGTCTTGATTCGCTTGACGCTGCTG”: the binding signal was 11.2 z-score.

Regarding “CCGATTAACATCAGGGTATACCCTGATGTTAATCGGGTCTTGATTCGCTTGACGCTGCTG”, the binding signal was determined as 2.48 z-score.

Turning to “CCGATTAACATCAGGGGGGAGAATGATGTTAATCGGGTCTTGATTCGCTTGACGCTGCTG”, the binding signal worked out at 7.95 z-score.

In the case of “CCGATTAACATCAGGGGTTTAACTGATGTTAATCGGGTCTTGATTCGCTTGACGCTGCTG”, the binding signal worked out at 0.864 z-score.

For “CCGATTAACATCAAAAAGGGAAATGATGTTAATCGGGTCTTGATTCGCTTGACGCTGCTG”, the binding signal was 1.33 z-score.

In turn, “CCGATTAACATCAAGGTAATCCCTGATGTTAATCGGGTCTTGATTCGCTTGACGCTGCTG” returned a binding signal of 1.06 z-score.

“CCGATTAACATCACATTTCCCCCTGATGTTAATCGGGTCTTGATTCGCTTGACGCTGCTG” yielded a binding signal of 9.84 z-score.

Take “CCGATTAACATCAGGGGGAGTTATGATGTTAATCGGGTCTTGATTCGCTTGACGCTGCTG”: the binding signal amounted to 7.05 z-score.

The values above are taken from publication PMC5700166.
